Five molecules from PubChem BioAssay (NCI) can be followed below.

The structures appear in SMILES notation.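 Five compound concentrations were applied to cells in 96-well plates for 48 hours; endpoints were derived by simple linear interpolation of the resulting dose-response curve. GI50 is the concentration that inhibits growth by half. TGI: concentration producing complete growth inhibition.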

This assay concerns NCI-H322M lung. Nature of the assay: inhibition of tumour cell growth, NCI panel, 48 h.
With `C[C@H](Nc1nc(NCCc2ccccc2)nc2ccccc12)c1ccccc1`, the GI50 is 1.96 µM and the TGI stood at 5.22 µM.
The matching figures for `O=C(NN1C(=O)/C(=C/C=C/c2ccc([N+](=O)[O-])o2)SC1=S)c1ccncc1`: 5.58 µM and 18.5 µM.
The matching figures for `O=C(NN1C(=O)/C(=C/C=C/c2ccc([N+](=O)[O-])o2)SC1=S)c1ccc(O)cc1`: 5.55 µM and 18.7 µM.
The matching figures for `Nc1nc2cc(-c3ccc4ncnc(NCc5ccccc5)c4c3)ccc2o1`: 3.42 µM and 13.2 µM.
With `O=C(/C=C/c1ccccc1Cl)c1nc2ccccc2n1Cc1ccc(F)cc1`, the GI50 is 9.98 µM and the TGI is above 100 µM.
